In the supplement of paper PMC10338343:
± gives the standard deviation. Whole data set: some 6,600 sequences, median “pre-steady-state target cleavage rate” near 0.07, cut for the highest 2% near 0.72. The list shows a part of the results, in another mix than the full data.

system: MIWI (PIWIL1) piRISC loaded with Kctd7 piRNA (30 nt); assay: pre-steady-state target cleavage rate (min^-1); MIWI and MILI are mouse PIWI proteins and EfPiwi is from a freshwater sponge; tags in brackets are library labels; higher = faster piRNA-guided slicing of the target; conditions: guide: Kctd7 piRNA 5'p-UGUUAAUCUCUCAGAGAAGGUGACAGUGAU; auxiliary factor: 500 nM mouse GTSF1
Procedure, shortened: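 In HEPES–potassium acetate buffer at 33 °C, […] transcribed, DNA-blocked target RNA library was mixed with 1 nM active affinity-purified piRISC carrying one synthetic guide, with or without 500 nM GTSF1 partner protein, for 0–8 or 0–960 min. Uncleaved targets were sequenced and normalised to depth and to weakly complementary targets; three trials were pooled and k3 was capped at 0.0001 min^-1. The pre-steady-state cleavage rate followed from a burst-and-steady-state fit.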
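Note: 1 nM active piRISC with 0.1 nM target library at 33 °C single turnover.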

Sequence	pre-steady-state target cleavage rate
UACACUGACACCUUCUCUGAGAGAUUUACA	0.26 ± 0.047
UUCACUGUCUACCUUCUCUGAGAGAUUAACA	0.208 ± 0.022
UAGUGAGUCACCUUCUCAGACAGAUUAACA	0.0874 ± 0.012
UAGUGACUCACCUUCUCUCUGAGAUUAACA	0.00487 ± 0.0025
UAGUGAGUCACGUUGUCUGAGAGAUUAACA	0.271 ± 0.019
UAGUGACAGACCUUCUCUGUGAGAUUAACA	0.0331 ± 0.0061
UUCACUGUCACCUUCACUGAGUGAUUAACA	0.0312 ± 0.0058
UAGACUGUGACCUUCUCUGAGAGAUUAUGA	0.0913 ± 0.021
UAGUGACUCACCUUCUCUGACUGAUUAACA	0.00516 ± 0.0026
UAGUGAGUCACCUAGACUGAGAGAUUAACA	0.0104 ± 0.0023
UAGACUGUGUGCUUCUCUGAGAGAUUAUGA	< 0.0001
UAGACUGUCACCUUCUCUGUGAGAUUAUGA	0.0182 ± 0.0051
UUCACUGUCACGUUCUCUGACAGAUUAACA	0.0793 ± 0.011
AUCACUGUCACCUAGUCUGAGAGAUUAAGA	0.141 ± 0.026
AUGACUGUCACCUUCUCUGAGAGAAUAACA	0.381 ± 0.061
UACACUGUCACCUUCUCCGAGAGAUUAACA	0.351 ± 0.051
UAGUCUGUCAGCCUUCUCUGAGAGAUUAACA	0.204 ± 0.018
UAGACUGUCACCUUCUGUGACAGAUUAACA	0.0523 ± 0.011
AUCACUGUCACCUUCUCAGAGUGAUUAACA	0.0228 ± 0.0053
AUCACUGUCACCUUCUCUGAGACUUUAACA	0.0319 ± 0.0087
AUCACUGUCACCAUCUCUGAGAGAUUUACA	0.357 ± 0.048
UUCACGUGUCACCUUCUCUGAGAGAUUAACA	0.518 ± 0.024
AUCACUGUCUCCUUCUCUGAGAGAUUAAGA	0.0948 ± 0.02
UAGUGACAGUCCUUCUCUGAGAGAUGUAACA	0.0173 ± 0.0054

Sequence	pre-steady-state target cleavage rate
UAGACUGUCAGGUUCUCUGAGAGAUUAUGA	0.00393 ± 0.0024
UAGUGAGUCACCUCCUCUGAGAGAUUAACA	0.705 ± 0.04
UAGUGACAGUCCUUCUCUGUGAGAUUUACA	0.0113 ± 0.003
UACACUGUCACCUUCACUGAGAGAUAUUGA	0.144 ± 0.046
UAGUGAGUCACCUACUCUGAGAGAUUAUGA	0.0516 ± 0.013
UACACUGUCACCUUCUCUGAGAGAUGUAACA	0.386 ± 0.051
UAGUGACUCACCUAGUCUGAGAGAUUAACA	0.0555 ± 0.0059
AUCACUCUCACCUUCUCUGAGACAUUAACA	0.358 ± 0.029
UAGUGACACACGUUCUCUGAGAGAUUAACA	0.405 ± 0.038
UAGUGAGUCACCUGUCUCUGAGAGAUUAACA	0.465 ± 0.038
UAGUCUGUCACCUACUCUGAGAGAUUAAGA	0.115 ± 0.019
UAGUGUGUGACCUUCUCUGUGAGAUUAACA	0.206 ± 0.016
UAGACUGGCACCUUCUCUGAGAGAUUAACA	0.266 ± 0.054
UACACUGUCACCUUCUCUGAGAGAUUAAUCA	0.271 ± 0.036
UUCACUGUCACCAUCUCUGAGAGAAUAACA	0.251 ± 0.043
UACACUGUCACCUUCUCUCAGAGAUUUUGA	0.0196 ± 0.0096
UAGUGACAGUGGAAGUCUGAGAAUUAACA	< 0.0001
UAGUGACAGUGGUUCUCUGAGAGAUUAACC [g2:g18:cont:t1C]	< 0.0001
UUCACUGUCACCUUCUCUAGAGAGAUUAACA	0.0879 ± 0.032
UAGUCUGAGUCCUUCUCUGAGAGAUUAAGA	0.0109 ± 0.003
UAGACUGACACCUUCUGUGAGAGAUUAACA	0.363 ± 0.022
UACACUCACACCUUCUCUGAGAGAUUAACA	0.558 ± 0.046
UAGUGACACACUCUUCUCUGAGAGAUUAACA	0.239 ± 0.031
UAGACUGUCACCUUCUCUUAGAGAUUAACA	0.344 ± 0.017

Sequence	pre-steady-state target cleavage rate
UAGUGACUCACCUUCGUCUGAGAGAUUAACA	0.0106 ± 0.0031
UUCUCUGUCACCUUCUCUGUGAGAUUAACA	0.259 ± 0.016
UUCAGUGUCACCUUCUCUGUGAGAUUAACA	0.198 ± 0.014
AUCACUGUCUACCUUCUCUGAGAGAUUAACA	0.24 ± 0.026
UAGUGACAGUGGAAGAGACUCAGAUUAACA	< 0.0001
UUCACUGUCACGAUCUCUGAGAGAUUAAGA	0.0736 ± 0.011
UAGUGACACACCUUGUCUGAGAGAUUUACA	0.0291 ± 0.01
UAGUGUGUCACCUUCGCUGAGAGAUUAACA	0.294 ± 0.029
UACACUGUCACCUUCUCUGAGAGAGUAACA	0.299 ± 0.042
UAGUGACAGUGGAAGAGAGAGAGAUUUAACA	< 0.0001
UAGUGACACACCUUCUCUGAGUGAUUUACA	0.0088 ± 0.0047
UAGUGACACACCUAUCUCUGAGAGAUUAACA	0.163 ± 0.019
AUCACUCUCACCUUCUCUGUGAGAUUAACA	0.221 ± 0.012
UAGUGAGUCACCUUCUCUGGGAGAUUAACA	0.388 ± 0.02
UACACUGUCACCUUCACUGAGAGAAUAACA	0.178 ± 0.04
UAGACUGUCACCUUCUCUGAGAGAUUAAUCA	0.407 ± 0.047
UUCACUGUCACCUUCUCUGAGAGAUGAACA	0.172 ± 0.029
UAGUCUGUCAGCUUCUCUGAGAGAUAAACA	0.24 ± 0.027
UAGUGACACACCUUCUCUGAGAGAUUACA	0.0728 ± 0.023
UAGUGAGUCACCUUCUCAGAGAGAUUAUGA	0.0274 ± 0.01
UAGUGUGUCACCUUCUCUGUGAGAUAAACA	0.0888 ± 0.01
UUCACUGACACCUUCUCUGACAGAUUAACA	0.332 ± 0.016
UACACUGUCACCUUCUCUGAGAGACUUAACA	0.355 ± 0.043
UAGUGUGUCACCUUCUCUGAGUCUUUAACA	0.00492 ± 0.0034

Sequence	pre-steady-state target cleavage rate
UUCACAGUCACCUUCUCUGAGAGUUUAACA	0.548 ± 0.083
UACACUGUCACCUUCUCUGAGAGAUUUACA	0.381 ± 0.048
UUCACUGUCACCUUCUCUGAGAGACUUAACA	0.345 ± 0.042
UAGUGAGUCACCUUCUGUGAGAGAUUAUGA	0.0461 ± 0.015
UAGUGAGUCACCUUGUCUGAGAGAUUUACA	0.0459 ± 0.016
UACACUGUCACCUUCUCUGACUGAUUAACA	0.014 ± 0.0056
UUCACUUCACCUUCUCUGAGAGAUUAACA	0.607 ± 0.031
UAGUGAGUCACCUUCUCUGAGGAGAUUAACA	0.0114 ± 0.005
UAGUGUGUCACCUUCACAGAGAGAUUAACA	0.0668 ± 0.01
UUCACUGUCACCUUCUCUGAGAGAUCUAACA	0.305 ± 0.047
UAGACUGUCACCUUGUCUGAGAGAUUAACA	0.495 ± 0.075
UAGUGAGUCAGGUUCUCUGAGAGAUUAACA	0.251 ± 0.026
UAGUGACUCUCCUUCUCUGAGAGAUUAACA	0.146 ± 0.015
UAGUGACAGUCCUUGUCUGAGAGAUUAUCA	0.00495 ± 0.0035
UAGUCUGUCACCUUCUGAGAGAGAUUUUGA	0.00964 ± 0.0056
AUCACUGUCACCUUGUCAGAGAGAUUAACA	0.268 ± 0.032
UAGUGAGUCACCAUCUCUCAGAGAUUAACA	0.0489 ± 0.0091
UAGUGUCUCAGCUUCUCUGAGAGAUUAACA	0.437 ± 0.031
UAGUGUGUCACCUUCUCUCAGACAUUAACA	0.0309 ± 0.0057
UACACUGUGACCUUCUCUGAGAGAUAAACA	0.167 ± 0.028
UAGUCACACACCUUCUCUGAGAGAUAUUGA	0.0189 ± 0.0072
UACACUGUCACCUUCUCUGUGAGAUUUUGA	0.0431 ± 0.016
UAGUGACAGACCUGUCUCUGAGAGAUUAACA	0.0177 ± 0.004
UAGUCUGUCACCUAGACUGAGAGAUUAACA	0.0162 ± 0.0037

Sequence	pre-steady-state target cleavage rate
UACACUGUCACCUUCUCUGUGAGAUUAUGA	0.0355 ± 0.013
UAGUGUGUCAGCUUCACUGAGAGAUUAACA	0.375 ± 0.028
UAGACAGUCAGCUUCUCUGAGAGAUUAACA	0.682 ± 0.035
UACACUGUCACCAUCUCUGAGAGAUUUUGA	0.0166 ± 0.0069
UAGUCUAUCACCUUCUCUGAGAGAUUAACA	0.531 ± 0.022
UAGUGACUCACCUUCUCUGAGAGUUUAUCA	0.0426 ± 0.013
UAGUGAGUCACCUUCUCUGAGACAUUUACA	0.0782 ± 0.021
UAGUGACAGUGCUCUCUCUGAGAGAUUAACA	0.0146 ± 0.0035
UUCACUGUCACCUUCUCUGAGAGAUUUUCA	0.157 ± 0.024
UACUCAGUCACCUUCUCUGAGAGAUUAACA	0.325 ± 0.045
UAGUCAGUCACGUUCUCUGAGAGAUUAACA	0.724 ± 0.037
UAGUGAGUCACCUUCUCUGAGAGAUUAACU [g2:g24:cont:t1U]	0.4 ± 0.047
UAGUCUCAGACCUUCUCUGAGAGAUUAUGA	0.00764 ± 0.0029
UAGUGACUCACCUUCACUGAGUGAUUAACA	0.0251 ± 0.0056
UAGUGAGUCUCCUUCUCUGAGAGAUUAUGA	0.026 ± 0.0074
UUCACUGUGACCUUCUCUGAGACAUUAACA	0.121 ± 0.01
UAGUCUGUCACCUUCUCUGAGAGAUUAACU [g2:g26:cont:t1U]	0.405 ± 0.038
UAGUGACAGACCUUCUCUGAGAGAUUACACA	0.0607 ± 0.013
UAGUCUGUCAGCUUCUCUGAGACAUUAACA	0.0148 ± 0.0027
UAGUGUCUCACCUUCUCUGAGAGAUUUUGA	0.0163 ± 0.0058
UAGAGUGUCACCAUCUCUGAGAGAUUAACA	0.741 ± 0.045
UAGUGACAGACUUUCUCUGAGAGAUUAACA	0.154 ± 0.012
UAGUCUGUCACCUUCACUGAGAGAUUAUGA	0.0546 ± 0.019
UAGUGACAGUGCUUCUCUGAGAGAUUAAGCA	0.00521 ± 0.0027

Sequence	pre-steady-state target cleavage rate
AUCACUGUCACCUUCUCUGAGACAUUAAGA	0.0074 ± 0.0033
UUCUGAGUCACCUUCUCUGAGAGAUUUUGA	0.0824 ± 0.015
UACACUGUCACCUUCUGUGAGAGAUUUUGA	0.034 ± 0.012
UUCACUGUCACCUUCUCUGAGAGAAUAUCA	0.2 ± 0.047
UACACUGUCACCUACUCUGAGACAUUAACA	0.104 ± 0.013
UAGACUGUCACCUUCUCUGAUAGAUUAACA	0.519 ± 0.04
UAGUCUGUCACCUUCUCAGAGAGAUUAACA	0.429 ± 0.029
AUCACUGUCACCUUCUCGGAGAGAUUAACA	0.285 ± 0.018
UACACUGUCACCUUCUCUGAGAGGAUUAACA	0.317 ± 0.043
UUCACUGUCACCUUCUCUGAGUGAUUAACA	0.0461 ± 0.0074
UAGUGACAGUGGAUCACUGAGAGAUUAUCA	< 0.0001
UAGUGACAGACCUUCACUGACAGAUUAACA	0.0123 ± 0.005
UUCACUGUCACCUUCUCUGAGAGAAAUAGA	0.0191 ± 0.008
UAGUCUCUCACCUUCUCUGAGAGAAUAACA	0.137 ± 0.025
UAGACUGUCAGCUUCUCAGAGAGAUUAACA	0.188 ± 0.014
UACACUGUCAGCUUCUCUGAGAGAUUAUCA	0.214 ± 0.026
UACACUGACUCCUUCUCUGAGAGAUUAACA	0.496 ± 0.035
UUCACUGUCACCUUCUCUCAGAGUUUAACA	0.0675 ± 0.01
UAGUGACAGUGGAACUCUGAGAGAUUAGACA	< 0.0001
UUCACUGUCCCUUCUCUGAGAGAUUAACA	0.648 ± 0.047
UAGUGUGUCACCUUCUGUGAGAGAUUUUGA	0.00834 ± 0.0038
UAGUGACUCACCUUCACUGUGAGAUUAACA	0.0777 ± 0.0083
UACACUGUGACCAUCUCUGAGAGAUUAACA	0.487 ± 0.032
